Source: patent publication US5312736, “Anticoagulant analogues of the tissue factor extrinsic pathway inhibitor (EPI) with reduced affinity for heparin” (Novo Nordisk A/S, dated 1994)

Biological target: tissue factor / factor VIIa complex (human, UniProt P08709)
Experiment: cell-based or functional assay

EPI activity [U/ml], chromogenic microplate assay (FVIIa/TF/FX, substrate S2222): 8.3 U/ml
B1: native extrinsic pathway inhibitor (EPI), entire EPI protein expressed from pCMVEPIhGH (other)
chain: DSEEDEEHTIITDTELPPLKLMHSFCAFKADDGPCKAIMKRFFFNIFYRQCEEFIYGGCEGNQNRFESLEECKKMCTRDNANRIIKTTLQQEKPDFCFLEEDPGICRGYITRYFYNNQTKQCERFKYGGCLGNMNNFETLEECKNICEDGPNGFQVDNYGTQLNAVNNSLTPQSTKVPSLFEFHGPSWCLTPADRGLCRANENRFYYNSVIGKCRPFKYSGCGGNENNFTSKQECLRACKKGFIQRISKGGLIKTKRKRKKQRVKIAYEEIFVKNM
